{
  "source": "PubChem BioAssay AID504332",
  "about": "(National Center for Advancing Translational Sciences (NCATS), 2011)",
  "note": "Out of some 350,000 compounds screened, about 31,000 (8.9%) were called active. The shares of active, inactive and inconclusive entries below differ from those in the screen. Calls follow the shape of the dose curve; as a rule, active = well fitted inhibition curve with a large enough effect; inconclusive = small, poorly fitted or top-dose-only effect; inactive = no such curve, though single readings can be large or run the other way. Where the call is inconclusive, the potency comes from a doubtful curve fit. More than one record can exist for a structure, and the calls need not agree. % is scaled to controls: 0 for no effect and ±100 for the full control effect; potency is read from the fitted curve at half-maximal effect; tags tell the direction and shape of the fitted curve.",
  "data": [
    {"target": "Histone-lysine N-methyltransferase EHMT2 (Homo sapiens) (UniProt Q96KQ7)", "sequence (Q96KQ7 whole entry, looked up)": "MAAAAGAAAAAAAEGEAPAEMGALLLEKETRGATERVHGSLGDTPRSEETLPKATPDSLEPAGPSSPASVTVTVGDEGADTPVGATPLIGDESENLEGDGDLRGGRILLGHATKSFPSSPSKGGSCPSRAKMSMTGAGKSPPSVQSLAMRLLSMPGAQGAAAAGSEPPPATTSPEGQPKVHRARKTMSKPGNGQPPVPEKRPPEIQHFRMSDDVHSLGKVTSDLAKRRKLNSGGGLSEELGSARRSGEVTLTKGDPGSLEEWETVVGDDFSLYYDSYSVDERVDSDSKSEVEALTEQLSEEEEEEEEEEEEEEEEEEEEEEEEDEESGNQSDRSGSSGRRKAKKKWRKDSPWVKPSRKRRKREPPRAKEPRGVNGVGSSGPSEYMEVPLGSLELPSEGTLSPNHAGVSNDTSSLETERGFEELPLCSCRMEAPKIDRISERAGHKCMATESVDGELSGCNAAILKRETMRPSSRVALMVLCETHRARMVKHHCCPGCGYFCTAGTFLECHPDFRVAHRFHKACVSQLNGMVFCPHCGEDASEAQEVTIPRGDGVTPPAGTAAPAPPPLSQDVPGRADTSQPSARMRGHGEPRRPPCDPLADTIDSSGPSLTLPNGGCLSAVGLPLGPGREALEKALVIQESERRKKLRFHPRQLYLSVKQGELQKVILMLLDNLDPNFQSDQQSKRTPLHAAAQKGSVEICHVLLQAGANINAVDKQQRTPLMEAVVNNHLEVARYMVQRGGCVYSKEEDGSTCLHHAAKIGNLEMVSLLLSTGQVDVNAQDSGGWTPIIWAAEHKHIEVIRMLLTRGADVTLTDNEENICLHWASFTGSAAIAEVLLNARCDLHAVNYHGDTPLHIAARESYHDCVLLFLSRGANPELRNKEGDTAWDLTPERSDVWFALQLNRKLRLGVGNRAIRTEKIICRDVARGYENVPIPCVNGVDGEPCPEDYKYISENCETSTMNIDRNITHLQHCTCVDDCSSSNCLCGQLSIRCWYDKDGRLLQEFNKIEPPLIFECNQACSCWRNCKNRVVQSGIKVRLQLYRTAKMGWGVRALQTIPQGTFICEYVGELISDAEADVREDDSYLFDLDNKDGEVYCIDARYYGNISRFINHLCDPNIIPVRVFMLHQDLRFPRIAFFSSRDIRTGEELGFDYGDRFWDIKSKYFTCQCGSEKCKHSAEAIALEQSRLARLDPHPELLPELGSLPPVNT", "test": "qHTS Assay for Inhibitors of Histone Lysine Methyltransferase G9a; also: nearly all actives have a fitted effect of over 75% in size", "conditions": "G9a H3K9 monomethylation, AlphaScreen, 2 h; activity, negative = inhibition: at 59 µM (top of the series) unless noted", "outline": "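Chemiluminescent proximity detection of H3K9 monomethylation, read after 10 min bead incubation in the dark. Reaction: 20 nM G9a, 500 nM biotin-H3K9 peptide, 20 uM SAM cofactor, 2 h, room temperature, following 15 min enzyme-compound preincubation.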", "values": [
      {"smiles": "Cc1ccc(NC(=O)C2C3C=CC4(O3)C2C(=O)N(CCN2CCOCC2)C4C(=O)NC2CCCCC2)cc1C", "note": "(configuration not stated)", "Potency": "inconclusive: 89.1 µM [inhibitor, single point]"},
      {"smiles": "COc1ccc(NC(=S)Nc2cccc(C(C)=O)c2)cc1OC", "Potency": "inconclusive: 50.1 µM [inhibitor, partial curve, poor fit]"},
      {"smiles": "COCCN(C(=O)CSc1nc2ccccc2c(=O)n1CC(C)C)c1c(N)n(Cc2ccccc2)c(=O)[nH]c1=O", "Potency": "inconclusive: 70.8 µM [inhibitor, partial curve]"},
      {"smiles": "CCOc1ccc(NC(=O)Cn2c(=O)n(CCCC(=O)NCc3ccc4c(c3)OCO4)c(=O)c3ccccc32)cc1", "Potency": "inactive"},
      {"smiles": "COc1ccc(C2c3c4c(n(C)c3CCN2C)CCN(C)C4c2ccc(OC)cc2)cc1", "note": "(configuration not stated)", "Potency": "inconclusive: 63.1 µM [inhibitor, partial curve, poor fit]"},
      {"smiles": "COc1cccc(CNC(=O)CSC2=Nc3ccccc3C3=NC(C)C(=O)N23)c1OC", "note": "(configuration not stated)", "Potency": "inactive"},
      {"smiles": "O=C(NC1CCCC1)C1(c2ccccc2)CCN(S(=O)(=O)c2ccccc2)CC1", "Potency": "inconclusive: 89.1 µM [inhibitor, partial curve, poor fit]"},
      {"smiles": "O=c1cc(-c2ccccc2)[nH]n1-c1ccc([N+](=O)[O-])cc1", "Potency": "inconclusive: 70.8 µM [inhibitor, partial curve, poor fit]"},
      {"smiles": "COc1ccc(CSc2nc(C)cc(=O)[nH]2)cc1Br", "Potency": "inconclusive: 8.91 µM [inhibitor, partial curve]"},
      {"smiles": "CCOC(=O)c1c(NC(=O)C(C)Sc2cn(CCNC(=O)c3ccccc3OC)c3ccccc23)sc2c1CCC2", "note": "(configuration not stated)", "Potency": "inconclusive: 5.01 µM [inhibitor, partial curve]"},
      {"smiles": "O=C(Nc1cc(Cl)ccc1-n1cncn1)c1ccc([N+](=O)[O-])o1", "Potency": "active: 50.1 µM"},
      {"smiles": "CC1=C(C(=O)Nc2ccccc2)C(c2ccncc2)C(C#N)=C(SCC(=O)Nc2ccccc2)N1", "note": "(configuration not stated)", "Potency": "active: 28.2 µM"},
      {"smiles": "Cc1ccc(-n2nc3ccc(NC(=O)Cc4ccc(Cl)cc4)cc3n2)cc1", "Potency": "inconclusive: 35.5 µM [inhibitor, partial curve, poor fit]"},
      {"smiles": "Cc1ccc(N2CC(=O)N(NC(=O)c3sc4nc(C)cc(C)c4c3N)CC2=O)cc1", "Potency": "inconclusive: 79.4 µM [inhibitor, single point]"},
      {"smiles": "Cc1cc(C(=O)NNC(=O)C2CCCC2)c(C)o1", "Potency": "inconclusive: 89.1 µM [inhibitor, partial curve, poor fit]"},
      {"smiles": "CCc1cccc(NS(=O)(=O)c2ccc3c(c2)N(C)CCO3)c1", "Potency": "inconclusive: 89.1 µM [inhibitor, single point]"},
      {"smiles": "O=C(O)c1cccc(-n2c(/C=C/c3ccc([N+](=O)[O-])cc3)nc3ccccc3c2=O)c1", "Potency": "active: 70.8 µM"},
      {"smiles": "Cc1ccccc1-c1n[nH]c(=S)n1/N=C/c1ccc(-c2ccccc2Br)o1", "Potency": "active: 12.6 µM"},
      {"smiles": "CCCC1=C(C(=O)OCC)C(c2cccs2)C(C#N)=C(N)O1", "note": "(configuration not stated)", "Potency": "inconclusive: 89.1 µM [inhibitor, single point]"},
      {"smiles": "Cc1ccccc1NC(=O)C1CCCN(S(=O)(=O)c2cnc[nH]2)C1", "note": "(configuration not stated)", "Potency": "inconclusive: 0.794 µM [inhibitor, partial curve, poor fit]"},
      {"smiles": "CCOc1ccc(NC(=O)CCN2C(=O)c3ccccc3C2=O)cc1", "Potency": "inactive"},
      {"smiles": "O=C(c1ccc2c(c1)N(Cc1ccc(F)cc1)C(=O)c1ccccc1S2(=O)=O)N1CCN(c2ccccn2)CC1", "Potency": "active: 22.4 µM"},
      {"smiles": "CC(=O)c1cccc(S(=O)(=O)N2CCn3cccc3C2C)c1", "note": "(configuration not stated)", "Potency": "inconclusive: 7.08 µM [inhibitor, single point]"},
      {"smiles": "Cc1c(C(=O)NC2CCC(C)CC2)oc2ccccc12", "note": "(configuration not stated)", "Potency": "inactive"},
      {"smiles": "C=CCC1NCCc2c(Br)cccc21", "note": "(configuration not stated)", "Potency": "active: 22.4 µM"},
      {"smiles": "COc1ccc(CCNC(=O)c2ccco2)cc1OC", "Potency": "inconclusive: 56.2 µM [inhibitor, partial curve, poor fit]"},
      {"smiles": "CCCCS(=O)(=O)c1oc(-c2ccc(F)cc2)nc1S(=O)(=O)c1ccccc1", "Potency": "inconclusive: 0.891 µM [inhibitor, full curve, poor fit]"},
      {"smiles": "CCN1CCN(Cc2ccc(NC(=O)c3cc(NC(=O)c4ccc5n[nH]nc5c4)cc(OC)c3)cc2C(F)(F)F)CC1", "activity, negative = inhibition": "inconclusive: -53% [inhibitor]"},
      {"smiles": "O=C(O)c1ccc(OC2CSC2)cc1", "Potency": "inconclusive: 89.1 µM [inhibitor, partial curve, poor fit]"},
      {"smiles": "COc1ccccc1N1CCN(CCCNC(=O)c2cnn(-c3ccc(C)c(C)c3)c2C2CCN(C(=O)OC(C)(C)C)CC2)CC1", "Potency": "inconclusive: 25.1 µM [inhibitor, partial curve, poor fit]"},
      {"smiles": "CN(C)S(=O)(=O)c1cccc(C(=O)Nc2ccc(N3CCOCC3)cc2)c1", "activity, negative = inhibition": "inconclusive: -84.6% [inhibitor]"},
      {"smiles": "O=C(CCC(=O)c1ccccc1)Nc1ccc(F)c(Cl)c1", "Potency": "inactive"},
      {"smiles": "N#CC1(NC(=O)COC(=O)c2cc(O)c3ccccc3c2O)CCCCC1", "Potency": "active: 4.47 µM"},
      {"smiles": "O=C(O)CCSc1nc2ccccc2s1", "activity, negative = inhibition": "inconclusive: -84.4% [inhibitor]"},
      {"smiles": "COc1ccc(C(=O)Nc2ccccc2-c2nc(-c3ccc(OC)cc3)no2)cc1", "Potency": "inactive"},
      {"smiles": "Nc1cccc(-c2cn3cc(C(F)(F)F)cc(Cl)c3n2)c1", "Potency": "inactive"},
      {"smiles": "CCOC(=O)c1c(C)n(C)c2ccc(OCC(O)CN3CCN(C)CC3)cc12", "note": "(configuration not stated)", "Potency": "inconclusive: 79.4 µM [inhibitor, single point]"},
      {"smiles": "CCOc1ncccc1C(=O)OCC(=O)Nc1ncc(C(F)(F)F)cc1Cl", "Potency": "inconclusive: 28.2 µM [inhibitor, single point]"},
      {"smiles": "CCOC(=O)N1CCN(c2c(NCCCN(C)c3ccccc3)c(=O)c2=O)CC1", "Potency": "inconclusive: 89.1 µM [inhibitor, single point]"},
      {"smiles": "O=C(CCN1C(=O)c2ccccc2C1=O)N1CCN(C(=O)c2ccccc2)CC1", "activity, negative = inhibition": "inconclusive: -56.3% [inhibitor] [at 12.7 µM]"},
      {"smiles": "NC(=S)Nc1cccc2cn[nH]c12", "Potency": "inactive"},
      {"smiles": "Cc1cccn2c(=O)nc(SCC(=O)c3ccc(Cl)cc3)nc12", "Potency": "inconclusive: 14.1 µM [inhibitor, partial curve]"}
    ]}
  ]
}
